{
  "source": "the supplement of paper PMC8728848",
  "binders": {"B1": {"name": "XCL (Xerocomus chrysenteron) (protein)", "chain": "MSYSITLRVYQTNRDRGYFSIVEKTVWHFANGGTWSEANGAHTLTQGGSGTSGVLRFLSTKGERITVAVGVHNYKRWCDVVTGLKPDETALVINPQYYNNGGRDYVREKQLAEYSVTSAIGTKVEVVYTVAEGNNLEANVIFS"}},
  "assay_in_all_cases": "glycan array binding signal (z-score within array); higher = stronger binding",
  "settings_in_all_cases": "glycan notation: IUPAC condensed, linker removed",
  "key": {"[1]": {"target": "Neu5Ac(a2-6)Gal(b1-4)GlcNAc(b1-2)Man(a1-3)[GlcNAc(b1-2)Man(a1-6)]Man(b1-4)GlcNAc(b1-4)GlcNAc", "in_short": "(§1)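 Columns mapping to the same glycan were averaged after glycan names were converted to IUPAC-condensed notation. The data come from 3228 arrays in the Consortium for Functional Glycomics database, limited to those with an available protein sequence. Binding is reported as a within-array Z-score averaged across arrays of one protein sequence and across linkers.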"}, "[2]": {"target": "Neu5Ac(a2-6)Gal(b1-4)GlcNAc(b1-2)Man(a1-3)[GlcNAc(b1-2)Man(b1-4)GlcNAc(b1-2)Man(a1-6)]Man(b1-4)GlcNAc(b1-4)GlcNAc", "in_short": "as §1"}, "[3]": {"target": "Neu5Ac(a2-6)Gal(b1-4)GlcNAc(b1-2)Man(a1-3)[Man(a1-6)]Man(b1-4)GlcNAc(b1-4)GlcNAc", "in_short": "as §1"}, "[4]": {"target": "Neu5Ac(a2-6)Gal(b1-4)GlcNAc(b1-2)Man(a1-3)[Neu5Ac(a2-6)Gal(b1-4)GlcNAc(b1-2)Man(a1-6)]Man(b1-4)GlcNAc(b1-4)GlcNAc", "in_short": "as §1"}, "[5]": {"target": "Neu5Ac(a2-6)Gal(b1-4)GlcNAc(b1-2)Man(a1-6)Man(b1-4)GlcNAc(b1-4)GlcNAc", "in_short": "as §1"}, "[6]": {"target": "Neu5Ac(a2-6)Gal(b1-4)GlcNAc(b1-2)Man(a1-6)[Gal(b1-4)GlcNAc(b1-2)Man(a1-3)]Man(b1-4)GlcNAc(b1-4)GlcNAc", "in_short": "as §1"}, "[7]": {"target": "Neu5Ac(a2-6)Gal(b1-4)GlcNAc(b1-2)Man(a1-6)[GlcNAc(b1-2)Man(a1-3)]Man(b1-4)GlcNAc(b1-4)GlcNAc", "in_short": "as §1"}, "[8]": {"target": "Neu5Ac(a2-6)Gal(b1-4)GlcNAc(b1-2)Man(a1-6)[Man(a1-3)]Man(b1-4)GlcNAc(b1-4)GlcNAc", "in_short": "as §1"}, "[9]": {"target": "Neu5Ac(a2-6)Gal(b1-4)GlcNAc(b1-3)Gal(b1-3)GlcNAc", "in_short": "as §1"}, "[10]": {"target": "Neu5Ac(a2-6)Gal(b1-4)GlcNAc(b1-3)Gal(b1-4)GlcNAc", "in_short": "as §1"}, "[11]": {"target": "Neu5Ac(a2-6)Gal(b1-4)GlcNAc(b1-3)Gal(b1-4)GlcNAc(b1-3)Gal(b1-4)GlcNAc", "in_short": "as §1"}, "[12]": {"target": "Neu5Ac(a2-6)Gal(b1-4)GlcNAc(b1-3)Gal(b1-4)[Fuc(a1-3)]GlcNAc(b1-3)Gal(b1-4)[Fuc(a1-3)]GlcNAc", "in_short": "as §1"}, "[13]": {"target": "Neu5Ac(a2-6)Gal(b1-4)GlcNAc(b1-3)GalNAc", "in_short": "as §1"}, "[14]": {"target": "Neu5Ac(a2-6)Gal(b1-4)GlcNAc6S", "in_short": "as §1"}, "Neu5Ac(a2-6)GalNAc": {"target": "Neu5Ac(a2-6)GalNAc", "in_short": "as §1"}, "[15]": {"target": "Neu5Ac(a2-6)GalNAc(b1-4)GlcNAc", "in_short": "as §1"}, "[16]": {"target": "Neu5Ac(a2-6)GlcNAc(b1-4)GlcNAc", "in_short": "as §1"}, "[17]": {"target": "Neu5Ac(a2-6)GlcNAc(b1-4)GlcNAc(b1-4)GlcNAc", "in_short": "as §1"}, "Neu5Ac(a2-8)Neu5Ac": {"target": "Neu5Ac(a2-8)Neu5Ac", "in_short": "as §1"}, "[18]": {"target": "Neu5Ac(a2-8)Neu5Ac(a2-3)Gal(b1-3)GalNAc(b1-4)[Neu5Ac(a2-8)Neu5Ac(a2-3)]Gal(b1-4)Glc", "in_short": "as §1"}, "[19]": {"target": "Neu5Ac(a2-8)Neu5Ac(a2-3)Gal(b1-4)Glc", "in_short": "as §1"}, "[20]": {"target": "Neu5Ac(a2-8)Neu5Ac(a2-3)[Gal(b1-3)GalNAc(b1-4)]Gal(b1-4)Glc", "in_short": "as §1"}, "[21]": {"target": "Neu5Ac(a2-8)Neu5Ac(a2-3)[GalNAc(b1-4)]Gal(b1-4)Glc", "in_short": "as §1"}, "[22]": {"target": "Neu5Ac(a2-8)Neu5Ac(a2-8)Neu5Ac", "in_short": "as §1"}, "[23]": {"target": "Neu5Ac(a2-8)Neu5Ac(a2-8)Neu5Ac(a2-3)Gal(b1-4)Glc", "in_short": "as §1"}, "[24]": {"target": "Neu5Ac(a2-8)Neu5Ac(a2-8)Neu5Ac(a2-3)[GalNAc(b1-4)]Gal(b1-4)Glc", "in_short": "as §1"}, "[25]": {"target": "Neu5Ac(a2-8)Neu5Ac(a2-8)Neu5Ac(a2-8)Neu5Ac(a2-3)[GalNAc(b1-4)]Gal(b1-4)Glc", "in_short": "as §1"}, "[26]": {"target": "Neu5Ac(b2-6)Gal(b1-4)GlcNAc", "in_short": "as §1"}, "Neu5Ac(b2-6)GalNAc": {"target": "Neu5Ac(b2-6)GalNAc", "in_short": "as §1"}, "[27]": {"target": "Neu5Ac9Ac(a2-3)Gal(b1-3)GlcNAc", "in_short": "as §1"}, "[28]": {"target": "Neu5Ac9Ac(a2-3)Gal(b1-4)GlcNAc", "in_short": "as §1"}, "[29]": {"target": "Neu5Ac9Ac(a2-6)Gal(b1-4)GlcNAc", "in_short": "as §1"}, "[30]": {"target": "Neu5Gc(a2-3)Gal(b1-3)GlcNAc", "in_short": "as §1"}, "[31]": {"target": "Neu5Gc(a2-3)Gal(b1-3)[Fuc(a1-4)]GlcNAc", "in_short": "as §1"}, "Neu5Gc(a2-3)Gal(b1-4)Glc": {"target": "Neu5Gc(a2-3)Gal(b1-4)Glc", "in_short": "as §1"}, "[32]": {"target": "Neu5Gc(a2-3)Gal(b1-4)GlcNAc", "in_short": "as §1"}, "[33]": {"target": "Neu5Gc(a2-3)Gal(b1-4)[Fuc(a1-3)]GlcNAc", "in_short": "as §1"}, "[34]": {"target": "Neu5Gc(a2-6)Gal(b1-4)GlcNAc", "in_short": "as §1"}, "Neu5Gc(a2-6)GalNAc": {"target": "Neu5Gc(a2-6)GalNAc", "in_short": "as §1"}, "[35]": {"target": "Neu5Gc(b2-6)Gal(b1-4)GlcNAc", "in_short": "as §1"}},
  "note": "Some of the results follow.",
  "data": [
    {"binder": "B1", "values": [
      {"measurement": "glycan array binding signal (z-score)", "setting": "[1]", "result": 0.487},
      {"measurement": "glycan array binding signal (z-score)", "setting": "[2]", "result": -0.311},
      {"measurement": "glycan array binding signal (z-score)", "setting": "[3]", "result": -0.3},
      {"measurement": "glycan array binding signal (z-score)", "setting": "[4]", "result": -0.324},
      {"measurement": "glycan array binding signal (z-score)", "setting": "[5]", "result": -0.279},
      {"measurement": "glycan array binding signal (z-score)", "setting": "[6]", "result": -0.32},
      {"measurement": "glycan array binding signal (z-score)", "setting": "[7]", "result": 1.25},
      {"measurement": "glycan array binding signal (z-score)", "setting": "[8]", "result": -0.278},
      {"measurement": "glycan array binding signal (z-score)", "setting": "[9]", "result": -0.311},
      {"measurement": "glycan array binding signal (z-score)", "setting": "[10]", "result": -0.243},
      {"measurement": "glycan array binding signal (z-score)", "setting": "[11]", "result": -0.311},
      {"measurement": "glycan array binding signal (z-score)", "setting": "[12]", "result": -0.283},
      {"measurement": "glycan array binding signal (z-score)", "setting": "[13]", "result": 0.128},
      {"measurement": "glycan array binding signal (z-score)", "setting": "[14]", "result": -0.326},
      {"measurement": "glycan array binding signal (z-score)", "setting": "Neu5Ac(a2-6)GalNAc", "result": -0.088},
      {"measurement": "glycan array binding signal (z-score)", "setting": "[15]", "result": -0.325},
      {"measurement": "glycan array binding signal (z-score)", "setting": "[16]", "result": -0.322},
      {"measurement": "glycan array binding signal (z-score)", "setting": "[17]", "result": -0.328},
      {"measurement": "glycan array binding signal (z-score)", "setting": "Neu5Ac(a2-8)Neu5Ac", "result": -0.303},
      {"measurement": "glycan array binding signal (z-score)", "setting": "[18]", "result": -0.322},
      {"measurement": "glycan array binding signal (z-score)", "setting": "[19]", "result": -0.311},
      {"measurement": "glycan array binding signal (z-score)", "setting": "[20]", "result": -0.319},
      {"measurement": "glycan array binding signal (z-score)", "setting": "[21]", "result": -0.316},
      {"measurement": "glycan array binding signal (z-score)", "setting": "[22]", "result": -0.317},
      {"measurement": "glycan array binding signal (z-score)", "setting": "[23]", "result": -0.328},
      {"measurement": "glycan array binding signal (z-score)", "setting": "[24]", "result": -0.314},
      {"measurement": "glycan array binding signal (z-score)", "setting": "[25]", "result": -0.309},
      {"measurement": "glycan array binding signal (z-score)", "setting": "[26]", "result": -0.325},
      {"measurement": "glycan array binding signal (z-score)", "setting": "Neu5Ac(b2-6)GalNAc", "result": -0.318},
      {"measurement": "glycan array binding signal (z-score)", "setting": "[27]", "result": -0.323},
      {"measurement": "glycan array binding signal (z-score)", "setting": "[28]", "result": -0.321},
      {"measurement": "glycan array binding signal (z-score)", "setting": "[29]", "result": -0.279},
      {"measurement": "glycan array binding signal (z-score)", "setting": "[30]", "result": -0.309},
      {"measurement": "glycan array binding signal (z-score)", "setting": "[31]", "result": -0.323},
      {"measurement": "glycan array binding signal (z-score)", "setting": "Neu5Gc(a2-3)Gal(b1-4)Glc", "result": -0.307},
      {"measurement": "glycan array binding signal (z-score)", "setting": "[32]", "result": -0.32},
      {"measurement": "glycan array binding signal (z-score)", "setting": "[33]", "result": -0.294},
      {"measurement": "glycan array binding signal (z-score)", "setting": "[34]", "result": -0.314},
      {"measurement": "glycan array binding signal (z-score)", "setting": "Neu5Gc(a2-6)GalNAc", "result": 0.059},
      {"measurement": "glycan array binding signal (z-score)", "setting": "[35]", "result": -0.32}
    ]}
  ]
}
